Measured values reported in PubChem BioAssay AID504333 (National Center for Advancing Translational Sciences (NCATS), 2011).
“And” between values parts separate entries of the source, which are not always exact repeats. Identical values can stand only once. Hit rate of the full screen: of about 360,000 compounds, about 16,000 (4.4%) were called active. This list was built around the results that the source calls inconclusive (neither active nor inactive); the mix of calls is not that of the screen. Calls come from the whole dose curve; as a rule, active = well fitted inhibition curve with a large enough effect; inconclusive = small, poorly fitted or top-dose-only effect; inactive = no such curve, though single readings can be large or run the other way. Potencies beside an inconclusive call are fits to weak or partial responses and may not hold up.

Biological target: Bromodomain adjacent to zinc finger domain protein 2B (Homo sapiens) (UniProt Q9UIF8)
Sequence of UniProt Q9UIF8 (Q9UIF8 whole entry, looked up, the tested form may be a part): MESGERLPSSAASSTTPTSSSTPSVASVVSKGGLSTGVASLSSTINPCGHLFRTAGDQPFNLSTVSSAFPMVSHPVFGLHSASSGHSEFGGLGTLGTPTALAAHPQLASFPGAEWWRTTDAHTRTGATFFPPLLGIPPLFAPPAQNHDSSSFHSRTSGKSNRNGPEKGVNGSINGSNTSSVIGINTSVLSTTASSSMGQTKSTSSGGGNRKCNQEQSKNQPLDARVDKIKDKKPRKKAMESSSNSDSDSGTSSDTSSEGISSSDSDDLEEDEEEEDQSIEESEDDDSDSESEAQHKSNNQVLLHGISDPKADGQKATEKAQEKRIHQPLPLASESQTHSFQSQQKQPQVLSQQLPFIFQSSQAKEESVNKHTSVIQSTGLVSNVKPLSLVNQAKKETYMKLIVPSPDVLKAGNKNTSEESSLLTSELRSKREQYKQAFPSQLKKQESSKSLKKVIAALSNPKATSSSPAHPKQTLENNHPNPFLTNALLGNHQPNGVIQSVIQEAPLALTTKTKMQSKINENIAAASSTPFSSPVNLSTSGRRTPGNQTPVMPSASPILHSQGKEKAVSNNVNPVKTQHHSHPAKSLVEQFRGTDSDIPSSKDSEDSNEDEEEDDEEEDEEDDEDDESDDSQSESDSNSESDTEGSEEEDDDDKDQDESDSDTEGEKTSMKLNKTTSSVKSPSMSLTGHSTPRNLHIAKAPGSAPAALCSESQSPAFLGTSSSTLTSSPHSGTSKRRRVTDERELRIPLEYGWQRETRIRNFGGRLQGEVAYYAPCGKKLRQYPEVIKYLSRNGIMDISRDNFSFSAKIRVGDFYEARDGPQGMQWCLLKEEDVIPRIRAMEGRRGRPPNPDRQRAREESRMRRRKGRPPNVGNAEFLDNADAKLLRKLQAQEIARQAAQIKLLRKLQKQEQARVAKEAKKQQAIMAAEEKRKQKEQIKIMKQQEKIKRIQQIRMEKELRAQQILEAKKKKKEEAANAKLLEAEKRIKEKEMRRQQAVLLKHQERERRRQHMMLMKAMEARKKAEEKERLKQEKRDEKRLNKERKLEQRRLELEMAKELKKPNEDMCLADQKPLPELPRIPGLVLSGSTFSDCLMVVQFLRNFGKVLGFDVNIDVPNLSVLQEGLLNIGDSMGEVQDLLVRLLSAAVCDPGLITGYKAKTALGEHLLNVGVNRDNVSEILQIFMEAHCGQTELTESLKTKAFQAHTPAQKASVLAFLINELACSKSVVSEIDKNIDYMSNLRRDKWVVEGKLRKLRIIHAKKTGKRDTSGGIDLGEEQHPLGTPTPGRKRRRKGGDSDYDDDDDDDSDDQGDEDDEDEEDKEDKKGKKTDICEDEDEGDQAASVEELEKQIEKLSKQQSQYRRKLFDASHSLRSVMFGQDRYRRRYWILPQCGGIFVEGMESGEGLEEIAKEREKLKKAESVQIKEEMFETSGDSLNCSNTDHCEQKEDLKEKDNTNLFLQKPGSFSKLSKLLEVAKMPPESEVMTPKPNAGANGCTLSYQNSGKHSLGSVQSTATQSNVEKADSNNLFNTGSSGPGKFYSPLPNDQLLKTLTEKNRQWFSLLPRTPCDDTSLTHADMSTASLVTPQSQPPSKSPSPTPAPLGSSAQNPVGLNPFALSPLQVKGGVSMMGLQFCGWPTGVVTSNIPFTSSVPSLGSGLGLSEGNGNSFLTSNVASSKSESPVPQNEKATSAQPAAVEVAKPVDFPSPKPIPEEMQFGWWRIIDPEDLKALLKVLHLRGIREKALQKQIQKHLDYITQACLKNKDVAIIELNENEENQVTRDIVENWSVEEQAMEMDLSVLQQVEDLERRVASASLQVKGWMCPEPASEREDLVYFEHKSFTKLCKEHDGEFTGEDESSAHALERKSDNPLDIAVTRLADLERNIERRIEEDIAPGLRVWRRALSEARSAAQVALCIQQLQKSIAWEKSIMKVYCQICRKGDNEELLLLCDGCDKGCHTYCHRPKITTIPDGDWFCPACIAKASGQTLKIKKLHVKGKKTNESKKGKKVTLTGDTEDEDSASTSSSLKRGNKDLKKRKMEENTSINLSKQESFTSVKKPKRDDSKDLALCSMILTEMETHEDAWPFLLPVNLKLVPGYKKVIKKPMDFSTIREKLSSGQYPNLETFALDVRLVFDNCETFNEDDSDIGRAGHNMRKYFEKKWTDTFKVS
Test: qHTS Assay for Inhibitors of BAZ2B; note: nearly all actives have a fitted effect of over 60% in size
Settings: AlphaScreen BAZ2B-H3K14Ac peptide displacement; series mostly up to 114 µM
Outline: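 Complex of BAZ2B and biotin-H3K14Ac (50 nM apiece) forms over 30 min at RT, then faces library compounds up to 110 uM for another 30 min; AlphaScreen beads added, 20 min dark incubation, luminescence read.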
Potency is the fitted concentration of half-maximal effect; tags give direction and shape of the fitted curve.

SMILES | Potency
COc1ccc(N2C3=C(CC4=C2CC(C)(C)CC4=O)C(=O)CC(C)(C)C3)cc1 | inactive
CC(c1ccccc1)N(CCC(c1ccccc1)C1CCOC(C)(C)C1)C(=O)c1ccco1 (stereo unspecified) | inconclusive: 44.7 µM [inhibitor, partial curve]
CCOC(=O)c1c(NC(=O)CSc2nc3c(c(=O)n(C)c(=O)n3C)n2C(C)C)sc(C)c1C | inactive
S=C(Nc1ccccc1)c1ccccn1 | active: 28.2 µM and active: 35.5 µM
COc1ccc(C(=O)Nc2cccc(-c3nc4cccnc4s3)c2C)c(OC)c1 | inactive
Cc1cc(C)c(NC(=O)C2CCCN2CCOC(=O)c2cccc([N+](=O)[O-])c2)c(C)c1 (stereo unspecified) | inconclusive: 50.1 µM [inhibitor, partial curve]
NCCSc1c(-c2ccc(Cl)cc2)[nH]c2ccccc12 | inactive
CC[n+]1c(/C=C2/C=C(C)CC(C)(C)C2)sc2ccc(OC)cc21 | active: 56.2 µM
Cc1ccccc1-c1nn(-c2ccc(F)cc2F)cc1CNCCN(C)C | inconclusive: 44.7 µM [inhibitor, partial curve]
Cc1nc(S(=O)(=O)Nc2ccc3c(c2)OCCO3)cn1C | inconclusive: 89.1 µM [inhibitor, single point]
Cc1ccc(-c2c(C)n3c4c(=O)n(C)c(=O)n(C)c4nc3n2CCCO)cc1 | inconclusive: 79.4 µM [inhibitor, single point]
COC(=O)c1ccc(C2/C(=C(/O)c3ccc(OC)cc3)C(=O)C(=O)N2Cc2ccco2)cc1 (stereo unspecified) | inconclusive: 79.4 µM [inhibitor, partial curve]
Cc1cccc(NC(=O)CSc2nnc3c4ccccc4n(C)c3n2)c1 | inactive
CCOc1ccc(OCC(=O)c2c(O)c3ccccc3oc2=O)cc1 | active: 50.1 µM
CCc1ccc(S(=O)(=O)c2cn(CC(=O)Nc3cccc(C)c3)c3ccc(Cl)cc3c2=O)cc1 | inactive
CN(C)C(=O)CN(c1ccc2c(c1)OCO2)S(C)(=O)=O | inconclusive: 79.4 µM [inhibitor, single point]
Cc1sc2ncn(CC(=O)Nc3ccc(C(F)(F)F)cc3)c(=O)c2c1S(=O)(=O)N1CCN(C)CC1 | inactive
CCOc1ccccc1CNC(=O)CCNS(=O)(=O)c1ccc2[nH]c(=O)oc2c1 | inactive
CCC(C)(C)n1nnnc1C(c1ccc(OC)c(OC)c1)N1CCN(c2ccc(OC)cc2)CC1 (stereo unspecified) | active: 50.1 µM
CCOC(=O)c1c(-c2cccc([N+](=O)[O-])c2)csc1N | active: 50.1 µM
CSc1cccc(NC(=O)/C=C/c2ccco2)c1 | inconclusive: 39.8 µM [inhibitor, partial curve]
